Results from the supplement of paper PMC5998384.

Experiments:
[1] = tested on: HeLa Kyoto; experiment: solubility in G1/S (NP-40 vs SDS abundance) (log2 ratio); higher = more soluble; details: cell cycle stage: G1/S
[2] = tested on: HeLa Kyoto; experiment: melting temperature (median over replicates), in situ; higher = more thermally stable
[3] = tested on: HeLa Kyoto; experiment: thermal stability score vs G1/S (z-score of summed log2 fold changes over temperatures); higher = more thermally stable than in G1/S
[4] = tested on: HeLa Kyoto; experiment: solubility change mitosis vs G1/S (difference of NP-40 vs SDS log2 ratios) (log2 ratio difference); higher = more soluble in mitosis
[5] = cell cycle stage: early G1 (4.5 h after nocodazole release)
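Throughout, for melting temperature (median over replicates), in situ: HeLa Kyoto cells synchronized by double thymidine or nocodazole block, proteins quantified by TMT10plex mass spectrometry, three independent biological replicates.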
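Throughout, for solubility change mitosis vs G1/S (difference of NP-40 vs SDS log2 ratios): synchronized HeLa Kyoto cells (double thymidine block for G1/S, nocodazole release for mitosis), protein amounts in NP-40 versus SDS lysates quantified by mass spectrometry, three biological replicates.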
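Throughout, for solubility in G1/S (NP-40 vs SDS abundance): HeLa Kyoto cells arrested at G1/S by double thymidine block, proteins quantified by TMT10plex mass spectrometry in mild NP-40 versus SDS extracts, three biological replicates.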
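Throughout, for thermal stability score vs G1/S (z-score of summed log2 fold changes over temperatures): synchronized HeLa Kyoto cells, proteins quantified by TMT10plex mass spectrometry, three biological replicates, mitosis taken 0.5 h after nocodazole release, G1/S directly after double thymidine block.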

Row | Substance | solubility in G1/S (log2) [1] | melting temperature ([2]; cell cycle stage: G1/S) | melting temperature ([2]; cell cycle stage: mitosis) | thermal stability score [3, 5] | thermal stability score ([3]; cell cycle stage: mitosis) | solubility change mitosis (log2) [4]
1 | USP7 (sequence left out) | -0.24 | 48.7 °C | 49.4 °C | 1.73 | 3.53 | -0.168
2 | TSN (sequence left out) | -0.145 | 53.6 °C | 54.1 °C | 1.99 | 1.25 | -0.134
